In the supplement of paper PMC4604168 (melanoma cell lines):
Some of the results follow. Many values rest on one well or one pass, so single values are uncertain.

test system: LB2518-MEL; assay: cell count relative to DMSO control; melanoma cells; higher = more viable cells; conditions: library dose: low library concentration; 72 h
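Also: cell number obtained by counting DAPI-stained nuclei in high-throughput microscope images with image analysis software, screen run in 1,536-well plates.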

SMILES | cell count
Cn1cnc2c(F)c(Nc3ccc(Br)cc3Cl)c(C(=O)NOCCO)cc21 [selumetinib] + O=C(Oc1ccc([N+](=O)[O-])cc1)N1CCC(C(O)(c2ccc3c(c2)OCO3)c2ccc3c(c2)OCO3)CC1 [JZL184] (first compound 0.015 µM, partner dose 1 µM) | 70.2%
Nc1ncn([C@H]2C[C@H](O)[C@@H](CO)O2)c(=O)n1 [decitabine] + O=C(Oc1ccc([N+](=O)[O-])cc1)N1CCC(C(O)(c2ccc3c(c2)OCO3)c2ccc3c(c2)OCO3)CC1 [JZL184] (first compound 0.1 µM, partner dose 1 µM) | 93.2%
O=C(/C=C/c1cccnc1)NCCCCC1CCN(C(=O)c2ccccc2)CC1 + Cc1cc(SCc2sc(-c3ccc(C(F)(F)F)c(F)c3)nc2C)ccc1OCC(=O)O [GW0742] (first compound 0.01 µM, partner dose 2 µM) | 79.3%
CS(=O)(=O)c1ccc(C(=O)Nc2ccc(Cl)c(-c3ccccn3)c2)c(Cl)c1 [vismodegib] + C/C(O)=C(\C#N)C(=O)Nc1cc(Br)ccc1Br [LFM-A13] (first compound 1 µM, partner dose 2 µM) | 107%
CS(=O)(=O)CCNCc1ccc(-c2ccc3ncnc(Nc4ccc(OCc5cccc(F)c5)c(Cl)c4)c3c2)o1 [lapatinib] + Cc1cc(SCc2sc(-c3ccc(C(F)(F)F)c(F)c3)nc2C)ccc1OCC(=O)O [GW0742] (first compound 0.8 µM, partner dose 2 µM) | 129%
NC1(c2ccc(-c3nc4ccn5c(=O)[nH]nc5c4cc3-c3ccccc3)cc2)CCC1 + C/C(O)=C(\C#N)C(=O)Nc1cc(Br)ccc1Br [LFM-A13] (first compound 0.4 µM, partner dose 2 µM) | 94.2%
CC(=O)c1c(C)c2cnc(Nc3ccc(N4CCNCC4)cn3)nc2n(C2CCCC2)c1=O [palbociclib] + O=C(Oc1ccc([N+](=O)[O-])cc1)N1CCC(C(O)(c2ccc3c(c2)OCO3)c2ccc3c(c2)OCO3)CC1 [JZL184] (first compound 0.04 µM, partner dose 1 µM) | 85.8%

test system: LOXIMVI; assay: as above; conditions: library dose: low library concentration; 72 h

SMILES | cell count
COc1ccc(C2=N[C@@H](c3ccc(Cl)cc3)[C@@H](c3ccc(Cl)cc3)N2C(=O)N2CCNC(=O)C2)c(OC(C)C)c1 [Nutlin-3] + C/C(O)=C(\C#N)C(=O)Nc1cc(Br)ccc1Br [LFM-A13] (first compound 0.1 µM, partner dose 2 µM) | 87.4%
CCCCCCCCCCCCCCCCCCOP(=O)([O-])OC1CC[N+](C)(C)CC1 [Perifosine] + O=C(Oc1ccc([N+](=O)[O-])cc1)N1CCC(C(O)(c2ccc3c(c2)OCO3)c2ccc3c(c2)OCO3)CC1 [JZL184] (first compound 0.4 µM, partner dose 1 µM) | 124%
CCN(CC)CCNC(=O)c1c(C)[nH]c(/C=C2\C(=O)Nc3ccc(F)cc32)c1C [sunitinib] + Cc1cc(SCc2sc(-c3ccc(C(F)(F)F)c(F)c3)nc2C)ccc1OCC(=O)O [GW0742] (first compound 0.4 µM, partner dose 2 µM) | 153%
Nc1nc(F)nc2c1ncn2[C@@H]1O[C@H](CO)[C@@H](O)[C@@H]1O [fludarabine] + C/C(O)=C(\C#N)C(=O)Nc1cc(Br)ccc1Br [LFM-A13] (first compound 0.2 µM, partner dose 2 µM) | 115%
Cc1cc(Nc2cc(N3CCN(C)CC3)nc(/C=C/c3ccccc3)n2)n[nH]1 + C/C(O)=C(\C#N)C(=O)Nc1cc(Br)ccc1Br [LFM-A13] (first compound 0.04 µM, partner dose 2 µM) | 63.1%
NC1(c2ccc(-c3nc4ccn5c(=O)[nH]nc5c4cc3-c3ccccc3)cc2)CCC1 + Cc1cc(SCc2sc(-c3ccc(C(F)(F)F)c(F)c3)nc2C)ccc1OCC(=O)O [GW0742] (first compound 0.4 µM, partner dose 2 µM) | 107%
Nc1ncn([C@H]2C[C@H](O)[C@@H](CO)O2)c(=O)n1 [decitabine] + C/C(O)=C(\C#N)C(=O)Nc1cc(Br)ccc1Br [LFM-A13] (first compound 0.1 µM, partner dose 2 µM) | 59.8%
CCCCCCCCc1ccc(CCC(N)(CO)CO)cc1 [fingolimod] + C/C(O)=C(\C#N)C(=O)Nc1cc(Br)ccc1Br [LFM-A13] (first compound 2 µM, partner dose 2 µM) | 111%
CC[C@]1(O)C[C@H]2CN(CCc3c([nH]c4ccccc34)[C@@](C(=O)OC)(c3cc4c(cc3OC)N(C=O)[C@H]3[C@@](O)(C(=O)OC)[C@H](OC(C)=O)[C@]5(CC)C=CCN6CC[C@]43[C@@H]65)C2)C1 [vincristine] + Cc1cc(SCc2sc(-c3ccc(C(F)(F)F)c(F)c3)nc2C)ccc1OCC(=O)O [GW0742] (first compound 0.0001 µM, partner dose 2 µM) | 92.5%
Cc1ccc(Nc2nccc(N(C)c3ccc4c(C)n(C)nc4c3)n2)cc1S(N)(=O)=O [Pazopanib] + C/C(O)=C(\C#N)C(=O)Nc1cc(Br)ccc1Br [LFM-A13] (first compound 0.4 µM, partner dose 2 µM) | 168%
COc1cc([C@@H]2c3cc4c(cc3[C@@H](O[C@@H]3O[C@@H]5CO[C@@H](C)O[C@H]5[C@H](O)[C@H]3O)[C@H]3COC(=O)[C@H]23)OCO4)cc(OC)c1O [etoposide] + Cc1cc(SCc2sc(-c3ccc(C(F)(F)F)c(F)c3)nc2C)ccc1OCC(=O)O [GW0742] (first compound 0.02 µM, partner dose 2 µM) | 114%
Cc1cc(Nc2cc(N3CCN(C)CC3)nc(/C=C/c3ccccc3)n2)n[nH]1 + Cc1cc(SCc2sc(-c3ccc(C(F)(F)F)c(F)c3)nc2C)ccc1OCC(=O)O [GW0742] (first compound 0.04 µM, partner dose 2 µM) | 64.5%
Cn1cnc2c(F)c(Nc3ccc(Br)cc3Cl)c(C(=O)NOCCO)cc21 [selumetinib] + C/C(O)=C(\C#N)C(=O)Nc1cc(Br)ccc1Br [LFM-A13] (first compound 0.015 µM, partner dose 2 µM) | 116%
NC(=O)c1ccc(N(C(N)=O)c2c(F)cccc2F)nc1-c1ccc(F)cc1F + C/C(O)=C(\C#N)C(=O)Nc1cc(Br)ccc1Br [LFM-A13] (first compound 0.4 µM, partner dose 2 µM) | 107%
O=C(O)[C@@H]1[O][Sb](=[O])([O][Sb]2(=[O])[O][C@H]([C@H](O)CO)[C@H](O)[C@H](C(=O)O)[O]2)[O][C@H]([C@H](O)CO)[C@@H]1O (stereo not given in full) [stibogluconate] + O=C(Oc1ccc([N+](=O)[O-])cc1)N1CCC(C(O)(c2ccc3c(c2)OCO3)c2ccc3c(c2)OCO3)CC1 [JZL184] (first compound 2 µM, partner dose 1 µM) | 109%
Cc1ccc(Nc2nccc(N(C)c3ccc4c(C)n(C)nc4c3)n2)cc1S(N)(=O)=O [Pazopanib] + O=C(Oc1ccc([N+](=O)[O-])cc1)N1CCC(C(O)(c2ccc3c(c2)OCO3)c2ccc3c(c2)OCO3)CC1 [JZL184] (first compound 0.4 µM, partner dose 1 µM) | 56.4%
CNC(=O)c1cc(Oc2ccc(NC(=O)Nc3ccc(Cl)c(C(F)(F)F)c3)cc2)ccn1 [sorafenib] + O=C(Oc1ccc([N+](=O)[O-])cc1)N1CCC(C(O)(c2ccc3c(c2)OCO3)c2ccc3c(c2)OCO3)CC1 [JZL184] (first compound 0.4 µM, partner dose 1 µM) | 93%
CNC(=O)c1cc(Oc2ccc(NC(=O)Nc3ccc(Cl)c(C(F)(F)F)c3)cc2)ccn1 [sorafenib] + C/C(O)=C(\C#N)C(=O)Nc1cc(Br)ccc1Br [LFM-A13] (first compound 0.4 µM, partner dose 2 µM) | 92.9%
CCCS(=O)(=O)Nc1ccc(F)c(C(=O)c2c[nH]c3ncc(Cl)cc23)c1F + O=C(Oc1ccc([N+](=O)[O-])cc1)N1CCC(C(O)(c2ccc3c(c2)OCO3)c2ccc3c(c2)OCO3)CC1 [JZL184] (first compound 0.08 µM, partner dose 1 µM) | 131%
CCCCCCCCc1ccc(CCC(N)(CO)CO)cc1 [fingolimod] + O=C(Oc1ccc([N+](=O)[O-])cc1)N1CCC(C(O)(c2ccc3c(c2)OCO3)c2ccc3c(c2)OCO3)CC1 [JZL184] (first compound 2 µM, partner dose 1 µM) | 63.8%
Cc1cn(-c2cc(NC(=O)c3ccc(C)c(Nc4nccc(-c5cccnc5)n4)c3)cc(C(F)(F)F)c2)cn1 [nilotinib] + O=C(Oc1ccc([N+](=O)[O-])cc1)N1CCC(C(O)(c2ccc3c(c2)OCO3)c2ccc3c(c2)OCO3)CC1 [JZL184] (first compound 0.2 µM, partner dose 1 µM) | 97.9%
CN(c1ncccc1CNc1nc(Nc2ccc3c(c2)CC(=O)N3)ncc1C(F)(F)F)S(C)(=O)=O + Cc1cc(SCc2sc(-c3ccc(C(F)(F)F)c(F)c3)nc2C)ccc1OCC(=O)O [GW0742] (first compound 0.08 µM, partner dose 2 µM) | 99.5%
C[C@@H](Oc1cc(-c2cnn(C3CCNCC3)c2)cnc1N)c1c(Cl)ccc(F)c1Cl [Crizotinib] + Cc1cc(SCc2sc(-c3ccc(C(F)(F)F)c(F)c3)nc2C)ccc1OCC(=O)O [GW0742] (first compound 0.2 µM, partner dose 2 µM) | 142%
